Data as given in US20230227565A1, “Method for Treating CD127-Positive Cancers by Administering an Anti-CD127 Agent” (OSE IMMUNOTHERAPEUTICS, priority 2021, published 2023).

Assays:
[1] = test system: B-ALL patient-derived xenograft; test: Overt leukemia PDX cohort, 12 B-ALL specimens (FIG. 2C); assay type: in vivo, mice; settings: control 61 days, p=0.007
Procedure: In overt leukemia experiments, mice were injected with 1 million BCP-ALL patient derived xenograft cells (n=10) of E2A-PBX1 positive patients (n=2 patients).

HPB-ALL cells = test: In vitro phagocytosis assay, HPB-ALL; assay type: cell-based, human
NALM6 cells = test: In vitro phagocytosis assay, NALM6; assay type: cell-based, human
Text: Visualization of engulfed leukemic cells (CPD+) by M1 human macrophages (CTG+) was investigated in parallel to flow cytometry analysis using a Nikon ECLIPSE Ti2 microscope using the NIS-Elements software (Nikon, Minato City, Tokyo, Japan).

REH cell line = test: In vitro phagocytosis assay, REH; assay type: cell-based, human; settings: FIG. 10, compared with anti-CD47 5F9
normal T cells = test: Phagocytosis of normal T cells by macrophages; assay type: cell-based, human; settings: FIG. 10
[2] = test system: human CD127+ cells (T cells); test: ADCC assay with Natural Killer cells; assay type: cell-based; settings: FIGS. 11B and 11C
Procedure: ADCC assay. 1 million human freshly isolated T cells were labelled with 15 uL ^51Cr (5 mCi/ml, PerkinElmer, Waltham, Mass., USA, cat# NEZ030001MC) for 1 h at 37° C., 5% CO2. T cells were then washed until radioactivity (measured by radioactive gamma counter) was absent in the supernatant. 25 μl/well of T cells-^51Cr target cells at 0.4 million cells/mL (10,000 cells/w) were seeded on P96-microtiter plate (flat bottom). 25 μl/well of anti-hCD127 antibodies were added in triplicate at 200 ng/mL (100 ng/mL final concentration) and left to incubate for 15 min at RT. […] As positive control of cytotoxicity, 75 μL of SDS 10% was added in 3 wells for 10 min before reading. Eventually, 25 μL/w supernatant were placed into radioactive reader plate and 100 μL/w Microscint Scintillant (PerkinElmer cat# 60136211) were added. Release of ^51Cr in supernatant was measured by radioactive gamma counter in counts per minutes (cpm). […]
For ADCC assay illustrated on FIG. 10C, effector cells, NK cells, were purified by negative selection (NK isolation kit, Miltenyi) from human PBMC and incubated with 150 UI/mL of IL-2 overnight at 37° C., 5% CO2. […] After incubation, substrate One Glo Luciferase product (2×) was added to each well to measure the number of live CD127-positive-Luc+ cells by chemiluminescence in a TECAN plate reader. […]

hCD32a/FcγRIIa = biological target: T1, hCD32a/FcγRIIa (Homo sapiens, UniProt P12318); test: ELISA binding to FcγR, CD32a; settings: FIG. 17B
T1 construct: purchased R&D Systems 1330-CD-050
T1 sequence (P12318 34-317): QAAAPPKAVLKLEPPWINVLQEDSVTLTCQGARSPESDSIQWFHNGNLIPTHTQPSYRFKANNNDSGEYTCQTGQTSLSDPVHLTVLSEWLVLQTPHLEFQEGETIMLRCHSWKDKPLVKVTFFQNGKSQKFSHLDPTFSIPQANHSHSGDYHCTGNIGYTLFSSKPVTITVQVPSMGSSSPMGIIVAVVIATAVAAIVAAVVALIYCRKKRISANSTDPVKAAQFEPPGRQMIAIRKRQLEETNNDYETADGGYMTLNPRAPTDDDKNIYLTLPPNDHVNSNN
Procedure: (§1) ELISA binding to FcγR. For binding ELISA assay, recombinant hCD64/FcγRI (R&Dsystems, Minneapolis, Minn., USA; reference 1257-FC-050) or hCD32a/FcγRIIa (R&Dsystems, Minneapolis, Minn., USA; reference 1330-CD-050) or hCD16a/FcγRIIIa (R&Dsystems, Minneapolis, Minn., USA; reference 4325-FC-050) was immobilized on plastic at 2 μg/ml in borate buffer (pH9) and purified antibody were added to measure binding.

hCD64/FcγRI = biological target: T2, hCD64/FcγRI (Homo sapiens, UniProt P12314); test: ELISA binding to FcγR, CD64; settings: FIG. 17C
T2 construct: purchased R&D Systems 1257-FC-050
T2 sequence (P12314 16-374): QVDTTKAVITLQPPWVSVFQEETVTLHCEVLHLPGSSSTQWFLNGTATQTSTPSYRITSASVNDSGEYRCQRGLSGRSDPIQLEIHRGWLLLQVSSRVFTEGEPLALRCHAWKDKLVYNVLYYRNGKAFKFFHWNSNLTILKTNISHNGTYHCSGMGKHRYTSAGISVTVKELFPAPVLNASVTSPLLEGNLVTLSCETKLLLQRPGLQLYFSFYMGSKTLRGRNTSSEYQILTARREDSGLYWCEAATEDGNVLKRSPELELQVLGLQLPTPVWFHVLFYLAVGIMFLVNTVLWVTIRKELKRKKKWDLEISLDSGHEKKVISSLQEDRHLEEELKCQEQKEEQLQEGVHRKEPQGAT
Procedure: as §1

NALM6 CDX = test: NALM6 cell line derived xenograft (CDX) model; assay type: in vivo, mice; settings: FIG. 20D
DND41 CDX = test: DND41 cell line derived xenograft (CDX) model; assay type: in vivo, mice; settings: FIG. 22D
[3] = test system: T-ALL patient derived xenograft; test: IL-7 dependent T-ALL patient derived xenograft (FIG. 19G); assay type: in vivo, mice
[4] = test system: B-ALL patient derived xenograft; test: B-ALL patient derived xenograft with weak p-STAT5 signaling (FIG. 21D); assay type: in vivo, mice
[5] = test system: B-ALL patient leukemic blasts; test: In vitro phagocytosis assay, B-ALL patient leukemic blasts; assay type: cell-based, human; settings: FIG. 21C
macrophages [6] = test system: macrophages
macrophages [7] = test system: macrophages; remark: listed apart in the source
[8] = Phase I study in healthy volunteers; settings: single dose 0.002-10 mg/kg IV or 1 mg/kg SC, or two doses 6 or 10 mg/kg 2 weeks apart

B1: N13B2-hVL6: antagonist IgG4 anti-CD127 monoclonal antibody, ADCP+/ADCC-; heavy chain SEQ ID No. 27, light chain SEQ ID No. 28 (antibody)
heavy: QVQLVESGGGLVKPGGSLRLSCAVSGFTLSDYYMAWIRQAPGKGLEWVSTISASGLRTYYPDSVKGRFTISRDNAKNSLYLQMNSLRAEDTAVYYCARPLSAHYGFNYFDYWGQGTLVTVSSASTKGPSVFPLAPCSRSTSESTAALGCLVKDYFPEPVTVSWNSGALTSGVHTFPAVLQSSGLYSLSSVVTVPSSSLGTKTYTCNVDHKPSNTKVDKRV[human IgG4 Fc with S228P L445P (EU numbers) not listed]
light: DIQMTQSPSSLSASVGDRVTITCRTSEDIYQGLAWYQQKPGKAPKLLLYSANTLHIGVPSRFSGSGSGTDYTLTISSLQPEDFATYYCQQYYDYPLAFGGGTKVEIKRTVAAPSVFIFPPSDEQLKSGTASVVCLLNNFYPREAKVQWKVDNALQSGNSQESVTEQDSKDSTYSLSSTLTLSKADYEKHKVYACEVTHQGLSSPVTKSFNRGEC
[1]
  median overall survival: 91 days
HPB-ALL cells; FIG. 14A, Dexamethasone 10 μM for 48 h
  phagocytosis index, combination with dexamethasone: synergetic effect
HPB-ALL cells; human macrophages
  induction of ADCP: able to induce ADCP
NALM6 cells; FIG. 6, human M1 macrophages
  phagocytosis of leukemia cells by macrophages (microscopy): leads to the phagocytosis of leukemia cells by macrophages
NALM6 cells; FIG. 14B
  phagocytosis index, combination with anti-CD47 antibody Magrolimab (5F9): synergetic effect
NALM6 cells; FIG. 20A, human macrophages
  induction of ADCP: induces ADCP
REH cell line
  phagocytosis of tumor cells by macrophages: higher increase in phagocytosis of the tumor cells than that of an anti-CD47 agent
Normal T cells
  phagocytosis of normal T cells by macrophages: does not have any significant impact
[2]
  ADCC by Natural Killer cells: lacks ADCC capacities
hCD32a/FcγRIIa
  binding to CD32a: does not bind efficiently
hCD64/FcγRI
  binding to CD64: does not bind efficiently
NALM6 CDX
  antileukemic activity (overall survival): antileukemic activity
DND41 CDX
  antileukemic activity (overall survival): antileukemic activity
[3]
  anti-leukemic activity (overall survival): exerts anti-leukemic activity
[4]
  anti-leukemic activity (overall survival): exerts anti-leukemic activity
[5]
  induction of ADCP: induced efficiently
Macrophages [6]
  autophagocytosis of macrophages: no autophagocytosis
Macrophages [7]
  overall number of live macrophages: not impacted
[8]
  safety and tolerability: safe and well-tolerated
